Measurements published in publication PMC4336329 (PLoS ONE, 2015).
The campaign covered roughly 310,000 compounds. About 2,200 (0.71%) showed an effect of 50% or more. The effect is printed as a negative number. The list shows a part of the results.

Biological target: human ether-à-go-go-related gene (hERG) potassium channel (human, UniProt Q12809)
Assay: primary screen, population patch clamp on CHO cells stably expressing hERG

human ether-à-go-go-related gene (hERG) potassium channel, sequence (Q12809 whole entry, looked up): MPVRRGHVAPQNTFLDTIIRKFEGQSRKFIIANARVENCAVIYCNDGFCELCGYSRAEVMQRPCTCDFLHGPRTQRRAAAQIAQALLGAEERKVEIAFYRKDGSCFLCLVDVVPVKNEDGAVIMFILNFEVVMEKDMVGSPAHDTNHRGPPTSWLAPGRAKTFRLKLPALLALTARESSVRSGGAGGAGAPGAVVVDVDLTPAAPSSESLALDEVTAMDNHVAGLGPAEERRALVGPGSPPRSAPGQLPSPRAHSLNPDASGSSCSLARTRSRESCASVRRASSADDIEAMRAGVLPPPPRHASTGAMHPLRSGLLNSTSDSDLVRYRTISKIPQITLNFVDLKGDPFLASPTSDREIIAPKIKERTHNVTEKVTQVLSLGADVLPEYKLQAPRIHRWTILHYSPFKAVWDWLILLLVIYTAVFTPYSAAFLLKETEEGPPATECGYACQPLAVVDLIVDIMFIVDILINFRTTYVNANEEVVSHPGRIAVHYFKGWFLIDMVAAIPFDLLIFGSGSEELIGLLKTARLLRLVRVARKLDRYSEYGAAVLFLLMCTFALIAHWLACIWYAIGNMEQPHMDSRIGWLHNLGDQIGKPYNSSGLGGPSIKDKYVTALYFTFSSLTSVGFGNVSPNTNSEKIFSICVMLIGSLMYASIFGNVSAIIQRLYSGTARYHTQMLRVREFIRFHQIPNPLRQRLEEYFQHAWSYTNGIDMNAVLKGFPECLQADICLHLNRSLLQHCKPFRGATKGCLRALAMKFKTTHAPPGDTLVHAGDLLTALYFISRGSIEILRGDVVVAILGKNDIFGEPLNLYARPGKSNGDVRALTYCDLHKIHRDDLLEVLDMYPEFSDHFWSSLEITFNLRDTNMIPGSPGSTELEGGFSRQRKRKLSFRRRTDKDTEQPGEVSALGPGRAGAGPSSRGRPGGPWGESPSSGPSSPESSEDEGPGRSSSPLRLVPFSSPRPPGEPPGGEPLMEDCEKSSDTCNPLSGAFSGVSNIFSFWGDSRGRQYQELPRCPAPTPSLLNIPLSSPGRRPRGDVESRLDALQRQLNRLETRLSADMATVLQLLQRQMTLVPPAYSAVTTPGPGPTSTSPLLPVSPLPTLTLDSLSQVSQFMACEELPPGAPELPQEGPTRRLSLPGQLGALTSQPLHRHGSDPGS

Row | SMILES | hERG current change (%, negative = inhibition) at 1uM
1 | CCN(CC)S(=O)(=O)c1csc(C(=O)Nc2ccccn2)c1 | -3.46%
2 | COc1cccc([C@@H]2Oc3ccc(OC)cc3C(=O)[C@H]2OC(=O)N[C@H](C)C2CCCCC2)c1 | 12.4%
3 | CC(c1ccon1)N(C)C(=O)c1ccc2nc(Cc3cccc(Cl)c3)oc2c1 (stereo not shown) | -3.4%
4 | Cc1ccc(Cl)cc1N1CCN(S(=O)(=O)c2cc3c(cc2C)NC(=O)CO3)CC1 | 7.77%
5 | O=C(Nc1ccc2[nH]ncc2c1)C1CCC1 | 12.3%
6 | Cc1ccc(Oc2ccc(NC(=O)Cn3ccsc3=N)cc2)cc1.Cl | 1.56%
7 | O=C(CSc1nnc(-c2ccccn2)n1Cc1ccccc1)N1CCCC1 | -3.87%
8 | COc1ccc(O)c(C(=O)CC(=O)c2ccccc2C)c1 | 18.2%
9 | OC(CCc1cccc(Cl)c1)c1cccs1 (stereo not shown) | 17.3%
10 | COc1ccc(NC(=O)c2cccc3c(Br)cccc23)cc1 | 15.3%
11 | Cc1cccc(C(=O)NCC(=O)NC(C)c2ccc(-n3ccnc3)cc2)c1 (stereo not shown) | -37.1%
12 | CCCC(=O)OCCNc1cc(SCc2ccco2)c2nonc2c1[N+](=O)[O-] | 4.49%
13 | COc1ccccc1NC(=O)CSc1nnc(NC(=O)C2CC2)s1 | 12.6%
14 | CCNC(=O)NC1(C(=O)Nc2ccc3c(c2)CCC3)CCCCC1 | 1.26%
15 | Cc1ccc(N(Cc2cc(=O)[nH]c3ccccc23)C(=O)CCl)c(C)c1 | 13.4%
16 | Cc1ccc(C)c(N2C(=O)CC(Cc3ccccc3)C2=O)c1.Cl (stereo not shown) | 15%
17 | Cc1ccccc1Cn1c(CN2CCc3ccccc3C2)nc2c1c(=O)n(C)c(=O)n2C | 11.2%
18 | CN(CC(=O)Nc1ccc(N2CCOCC2)cc1)CC(=O)Nc1ccccc1C#N | 5.54%
19 | CCN(CC)S(=O)(=O)c1ccc(N2CCCC2)c(NC(=O)Cc2cc(OC)c(OC)c(OC)c2)c1 | 6.75%
20 | CC(=O)c1cccc(OCC(=O)N2CCCc3ccccc32)c1 | 4.93%
21 | COc1ccc(CCNC(=O)C(=O)NCCOc2ccccc2)cc1OC | 3.13%
22 | CCN(CC)S(=O)(=O)c1ccc(Cl)c(C(=O)NC)c1 | 3.08%

Row | SMILES | hERG current change (%, negative = inhibition) at 1uM
23 | COc1ccc(C(=O)NCC(=O)N/N=C/C(C)=C/c2ccco2)cc1OC | 16.7%
24 | O=C(CN1CCN(Cc2ccc3c(c2)OCO3)CC1)Nc1ccc2c(c1)OCO2 | -64.3%
25 | COc1ccc(NC(=O)C(=O)NCCN2CCN(C(=O)c3cccc(Br)c3)CC2)cc1 | -5.64%
26 | Cc1ccc2c(c1)-c1[nH]c(=S)ncc1CS2 | 15.9%
27 | CC(Sc1nc2cc(Cl)ccc2s1)C(=O)Nc1cccc(S(=O)(=O)N2CCOCC2)c1 (stereo not shown) | -0.0431%
28 | Cc1ccc2nc(NC(=O)c3ccc(Br)o3)sc2c1 | 23.4%
29 | Clc1ccc(-n2nnnc2-c2cnc(-c3ccncc3)nc2-c2cccs2)cc1 | -3.83%
30 | Cc1cc(C)nc(NS(=O)(=O)c2ccc(NC(=O)CSc3nc4ccccc4[nH]3)cc2)n1 | -5.97%
31 | Cc1ccc(N(C(=O)c2ccccn2)C(C(=O)NC2CCCCC2)c2ccncc2)cc1 (stereo not shown) | 11.7%
32 | Nc1ccccc1-c1nc2ccccc2[nH]c1=O | 11.2%
33 | COc1ccccc1/C=C/C(=O)NCC(=O)N/N=C/c1ccc2c(c1)OCO2 | 16.6%
34 | CC(C)N(CC(N)=O)C(=O)Cc1coc2cc3c(cc12)CCC3 | 9.14%
35 | Cc1ccn2c(NC(=O)c3cccs3)c(-c3ccccc3)nc2c1 | 8.62%
36 | O=C(COC(=O)Cc1ccc(F)cc1)NC1CCS(=O)(=O)C1 (stereo not shown) | 2.81%
37 | Cc1ccc2c(C(=O)CN3CCCC(C)C3)c(C)[nH]c2c1 (stereo not shown) | 6.35%
38 | C[N+](C)(C)C[C@H](O)CC(=O)[O-] | 3.24%
39 | O=C(Nc1cccc(O)c1)c1ccc(NC(=O)c2cccs2)cc1 | 13.8%
40 | CCC1(CC)C(=O)C2=C3C1[C@H](C(=O)OC)C=C(C(=O)OC)C[C@H]3[C@H]1C(=O)N(Cc3ccccc3)C(=O)[C@H]1[C@H]2C (stereo partly shown) | 4.54%
41 | COc1ccc2c(CC(=O)N3CCN(S(=O)(=O)c4ccc(F)cc4)CC3)coc2c1 | 7.59%
42 | O=C(Nc1nnc(S(=O)(=O)N2CCCCCC2)s1)c1ccc(Br)cc1 | 1.03%
43 | Cn1cc(CN2CCC(C(=O)Nc3cccc(-c4cccc(F)c4)c3)CC2)cn1 | -37.9%
